Results from article PMC9911399, “Two distinct binding modes provide the RNA-binding protein RbFox with extraordinary sequence specificity”.
Where a chain is given by its changes, count along the chain named. The list shows a part of the results.

T1: RBFOX1 RRM RbFoxmut (Fox-RRM*) (Homo sapiens, UniProt Q9NWB1 109-208, R118D;E147R;N151S;E152T)
T1 sequence: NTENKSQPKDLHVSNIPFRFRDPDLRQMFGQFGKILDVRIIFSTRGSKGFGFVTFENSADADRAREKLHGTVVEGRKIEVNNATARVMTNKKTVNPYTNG

B1: GAGACUU (DNA:RNA)
RNA: GGGAGACCGGAAUUCAGAUUGUCCGAGACUUUUAAAUCCCGUCGUAGCCACCA
DNA 1: CAATCTGAATTCCGGTCTCCC
DNA 2: TGGTGGCTACGACGGGATT
B2: UAUCCGG (DNA:RNA)
RNA: B1 RNA with G25U, G27U, A28C, U30G, U31G
DNA 1: CAATCTGAATTCCGGTCTCCC
DNA 2: TGGTGGCTACGACGGGATT
B3: GCCACCC (DNA:RNA)
RNA: B1 RNA with A26C, G27C, U30C, U31C
DNA 1: CAATCTGAATTCCGGTCTCCC
DNA 2: TGGTGGCTACGACGGGATT
B4: UGCGUGA (DNA:RNA)
RNA: GGGAGACCGGAAUUCAGAUUGUCCUGCGUGAUUAAAUCCCGUCGUAGCCACCA
DNA 1: CAATCTGAATTCCGGTCTCCC
DNA 2: TGGTGGCTACGACGGGATT
B5: AUGCCCA (DNA:RNA)
RNA: B1 RNA with G25A, A26U, A28C, U30C, U31A
DNA 1: CAATCTGAATTCCGGTCTCCC
DNA 2: TGGTGGCTACGACGGGATT
B6: GUUGCGA (DNA:RNA)
RNA: B4 RNA with U25G, G26U, C27U, U29C
DNA 1: CAATCTGAATTCCGGTCTCCC
DNA 2: TGGTGGCTACGACGGGATT
B7: AAUCAAC (DNA:RNA)
RNA: B1 RNA with G25A, G27U, A28C, C29A, U30A, U31C
DNA 1: CAATCTGAATTCCGGTCTCCC
DNA 2: TGGTGGCTACGACGGGATT
B8: GUCGGCC (DNA:RNA)
RNA: B4 RNA with U25G, G26U, U29G, G30C, A31C
DNA 1: CAATCTGAATTCCGGTCTCCC
DNA 2: TGGTGGCTACGACGGGATT
B9: UACAAUG (DNA:RNA)
RNA: B1 RNA with G25U, G27C, C29A, U31G
DNA 1: CAATCTGAATTCCGGTCTCCC
DNA 2: TGGTGGCTACGACGGGATT
B10: GCAAUCC (DNA:RNA)
RNA: B1 RNA with A26C, G27A, C29U, U30C, U31C
DNA 1: CAATCTGAATTCCGGTCTCCC
DNA 2: TGGTGGCTACGACGGGATT
B11: CUAGUAG (DNA:RNA)
RNA: B4 RNA with U25C, G26U, C27A, G30A, A31G
DNA 1: CAATCTGAATTCCGGTCTCCC
DNA 2: TGGTGGCTACGACGGGATT
B12: CCUCGUC (DNA:RNA)
RNA: B1 RNA with G25C, A26C, G27U, A28C, C29G, U31C
DNA 1: CAATCTGAATTCCGGTCTCCC
DNA 2: TGGTGGCTACGACGGGATT
B13: ACCACUU (DNA:RNA)
RNA: B1 RNA with G25A, A26C, G27C
DNA 1: CAATCTGAATTCCGGTCTCCC
DNA 2: TGGTGGCTACGACGGGATT
B14: AAGCUGC (DNA:RNA)
RNA: B1 RNA with G25A, A28C, C29U, U30G, U31C
DNA 1: CAATCTGAATTCCGGTCTCCC
DNA 2: TGGTGGCTACGACGGGATT
B15: AAGCUUG (DNA:RNA)
RNA: B1 RNA with G25A, A28C, C29U, U31G
DNA 1: CAATCTGAATTCCGGTCTCCC
DNA 2: TGGTGGCTACGACGGGATT
B16: UCCAUGU (DNA:RNA)
RNA: B4 RNA with G26C, G28A, A31U
DNA 1: CAATCTGAATTCCGGTCTCCC
DNA 2: TGGTGGCTACGACGGGATT
B17: AAAUAGA (DNA:RNA)
RNA: B4 RNA with U25A, G26A, C27A, G28U, U29A
DNA 1: CAATCTGAATTCCGGTCTCCC
DNA 2: TGGTGGCTACGACGGGATT
B18: AGCCGUU (DNA:RNA)
RNA: B1 RNA with G25A, A26G, G27C, A28C, C29G
DNA 1: CAATCTGAATTCCGGTCTCCC
DNA 2: TGGTGGCTACGACGGGATT
B19: UUAGGAC (DNA:RNA)
RNA: B4 RNA with G26U, C27A, U29G, G30A, A31C
DNA 1: CAATCTGAATTCCGGTCTCCC
DNA 2: TGGTGGCTACGACGGGATT
B20: ACCAUCG (DNA:RNA)
RNA: B4 RNA with U25A, G26C, G28A, G30C, A31G
DNA 1: CAATCTGAATTCCGGTCTCCC
DNA 2: TGGTGGCTACGACGGGATT
B21: ACAUCCG (DNA:RNA)
RNA: B1 RNA with G25A, A26C, G27A, A28U, U30C, U31G
DNA 1: CAATCTGAATTCCGGTCTCCC
DNA 2: TGGTGGCTACGACGGGATT
B22: CCGGGAC (DNA:RNA)
RNA: B1 RNA with G25C, A26C, A28G, C29G, U30A, U31C
DNA 1: CAATCTGAATTCCGGTCTCCC
DNA 2: TGGTGGCTACGACGGGATT
B23: GCUCCAA (DNA:RNA)
RNA: B1 RNA with A26C, G27U, A28C, U30A, U31A
DNA 1: CAATCTGAATTCCGGTCTCCC
DNA 2: TGGTGGCTACGACGGGATT
B24: CCUCUUA (DNA:RNA)
RNA: B4 RNA with U25C, G26C, C27U, G28C, G30U
DNA 1: CAATCTGAATTCCGGTCTCCC
DNA 2: TGGTGGCTACGACGGGATT
B25: AUGCUCU (DNA:RNA)
RNA: B1 RNA with G25A, A26U, A28C, C29U, U30C
DNA 1: CAATCTGAATTCCGGTCTCCC
DNA 2: TGGTGGCTACGACGGGATT
B26: CUGUCCC (DNA:RNA)
RNA: B1 RNA with G25C, A26U, A28U, U30C, U31C
DNA 1: CAATCTGAATTCCGGTCTCCC
DNA 2: TGGTGGCTACGACGGGATT
B27: CUAAGUA (DNA:RNA)
RNA: B1 RNA with G25C, A26U, G27A, C29G, U31A
DNA 1: CAATCTGAATTCCGGTCTCCC
DNA 2: TGGTGGCTACGACGGGATT
B28: ACCCCGC (DNA:RNA)
RNA: B4 RNA with U25A, G26C, G28C, U29C, A31C
DNA 1: CAATCTGAATTCCGGTCTCCC
DNA 2: TGGTGGCTACGACGGGATT
B29: GUAAGCC (DNA:RNA)
RNA: B1 RNA with A26U, G27A, C29G, U30C, U31C
DNA 1: CAATCTGAATTCCGGTCTCCC
DNA 2: TGGTGGCTACGACGGGATT
B30: GCGGUCU (DNA:RNA)
RNA: B1 RNA with A26C, A28G, C29U, U30C
DNA 1: CAATCTGAATTCCGGTCTCCC
DNA 2: TGGTGGCTACGACGGGATT
B31: UUUCUCU (DNA:RNA)
RNA: B4 RNA with G26U, C27U, G28C, G30C, A31U
DNA 1: CAATCTGAATTCCGGTCTCCC
DNA 2: TGGTGGCTACGACGGGATT

biological target: T1, RBFOX1 RRM RbFoxmut (Fox-RRM*); assay: EMSA; HiTS-Eq, 1 nM pool, 10 min; buffer printed only for the single-RNA assays: 10 mM Tris pH 7.5, 150 mM NaCl, 3.4 mM EDTA, 0.001% NP-40, 30 C; conditions: tags: His6 N-terminal (pET28a); label: 5' 32P
Summary of the method: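 Purified RbFox RRM (wild type or mutant) was equilibrated for 10 min in 50 µL with 1 nM of a 5′-radiolabelled pool of RNA with 7 randomized nucleotides, its flanks annealed to DNA oligonucleotides, across increasing protein concentrations. Free RNA was separated by 8% native PAGE, excised, reverse-transcribed, PCR-barcoded and sequenced on an Illumina HiSeq 2500. Relative association constants came from read-count changes of each variant against the control reaction, normalised to the cognate motif.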

| Binder | binding signal |
| --- | --- |
| B1 | 0.0483 KA relative to UGCAUGU |
| B2 | 0.076 KA relative to UGCAUGU |
| B3 | 0.0541 KA relative to UGCAUGU |
| B4 | 0.159 KA relative to UGCAUGU |
| B5 | 0.0977 KA relative to UGCAUGU |
| B6 | 0.0969 KA relative to UGCAUGU |
| B7 | 0.0524 KA relative to UGCAUGU |
| B8 | 0.214 KA relative to UGCAUGU |
| B9 | 0.0464 KA relative to UGCAUGU |
| B10 | 0.0263 KA relative to UGCAUGU |
| B11 | 0.129 KA relative to UGCAUGU |
| B12 | 0.0873 KA relative to UGCAUGU |
| B13 | 0.0717 KA relative to UGCAUGU |
| B14 | 0.0705 KA relative to UGCAUGU |
| B15 | 0.202 KA relative to UGCAUGU |
| B16 | 0.152 KA relative to UGCAUGU |

| Binder | binding signal |
| --- | --- |
| B17 | 0.0945 KA relative to UGCAUGU |
| B18 | 0.0814 KA relative to UGCAUGU |
| B19 | 0.0674 KA relative to UGCAUGU |
| B20 | 0.0949 KA relative to UGCAUGU |
| B21 | 0.121 KA relative to UGCAUGU |
| B22 | 0.086 KA relative to UGCAUGU |
| B23 | 0.0756 KA relative to UGCAUGU |
| B24 | 0.102 KA relative to UGCAUGU |
| B25 | 0.0844 KA relative to UGCAUGU |
| B26 | 0.0693 KA relative to UGCAUGU |
| B27 | 0.137 KA relative to UGCAUGU |
| B28 | 0.0801 KA relative to UGCAUGU |
| B29 | 0.1 KA relative to UGCAUGU |
| B30 | 0.0966 KA relative to UGCAUGU |
| B31 | 0.0757 KA relative to UGCAUGU |
